# Results published in the supplement of paper PMC11417369.
# ± gives the standard deviation of the averaged measurements. Some of the results follow.
# System: PfAP2-I AP2 domain 3 (GST-tagged)
# Test: gcPBM binding intensity (ln(normalized median fluorescence intensity)); higher = stronger DNA binding
# Summary of the method: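 Each value is the highest Masliner-normalised natural-log median intensity across replicate spots of either orientation of a probe. The probes were primer-extended double-stranded 36-bp intergenic genomic sequences on an Agilent 4 × 180k array, alongside negative controls, exposed for 1 h to GST-tagged P. falciparum DNA-binding domains expressed in E. coli. Bound protein was picked up with Alexa488 anti-GST antibody and scanned at 488 nm.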
row,Sequence,gcPBM binding intensity (ln)
1,CACACGTATAAATATACACACTAAAATACACGCACA [CACACA_site7876],8.58
2,ATATATATATATATATGTACATATTTATTTATTTAT [XGTACX_site5161],9.31 ± 0.31
3,AGCACAGACTAATAAACACACACATATATATATATA [CACACA_site8021],9.3 ± 0.35
4,CTCATTCTTTTTTGATGTACTTTTTTTTTTTAAGTT [XGTACX_site2875],8.12 ± 0.28
5,TTTTTTTTTTTTTTTTTGCAATATATTTTAAAAAAG [CACACA_negctrl_site25],8.14 ± 0.7
6,TTTTTTTTTTTTTTTTTTTTTTGTGAAACTAAGTAA [CACACA_negctrl_site273],8.18 ± 0.78
7,GGAAGAATATATAGGACACACATACAATAATAAATA [CACACA_site6124],7.93 ± 0.49
8,AACTTCTTTTTTATAACACACAAAATATAAATACAA [CACACA_site4313],8.15 ± 0.34
9,TAATACAAAAAGAAAAGTACATGTTAATTATTATTT [XGTACX_site2196],7.67 ± 0.43
10,AACATATAAATGATATGTACACACATTTATATATAT [XGTACX_site7364],8.34 ± 0.75
11,CAAATTAAATATTATGCATGTACCAAACATCCTACC [TGCATGCA_site35],8.1 ± 0.5
12,TTTAATATGTATTTTTTTTTTTTTTTTTTTTTTTTT [XGTACX_negctrl_site440],9.96 ± 0.13
13,TATAACAGGAATTATATATATATATATATATATTAT [CACACA_negctrl_site911],8.17 ± 0.64
14,CTTTTTTTAGTTAGGTGTACAATTTGTTATTATTAG [XGTACX_site1507],8.18 ± 0.26
15,TTTTTTTTTTTTTTTTGTACATATTTCTTATAAGTG [XGTACX_site6459],8.13 ± 0.61
16,CATAGGATTATACTTTTGGAATATTATTAAATATGT [XGTACX_negctrl_site75],7.41 ± 0.52
17,TTTATTTTTTAATGTTGTACAATGTTGTTTAATCAA [XGTACX_site6489],7.88 ± 0.26
18,TTTTTTTCTTTTCAAACACACAATTGGTATATATTA [CACACA_site3320],7.8 ± 0.57
19,TCATCCGTTTTAAGAAGTACATATTTGAACATATAA [XGTACX_site8040],7.76 ± 0.29
20,ACATGTCAAACATTTGCACACAAAAAAATAAAAATT [CACACA_site691],9.43 ± 0.18
21,TATATATATATGTGCACACATATATAATATGTATAA [CACACA_site715],10.1 ± 0.42
22,AAATAACACATATATACACACATATAACTATAATAT [CACACA_site7298],7.83 ± 0.54
23,TATATACAAAAATGCACACGAAAAGTAATATATATA [CACACA_site4173],9.04 ± 0.83

row,Sequence,gcPBM binding intensity (ln)
1,TATATAAAAATCAATTGTACTTTTTTTTTTTTTTTT [XGTACX_site7327],8.68 ± 0.42
2,ATATATAAAATTATATGTACATATATAATATATATA [XGTACX_site529],8.28 ± 0.33
3,TAGAACAAATAAAACACACACATATATATATATATG [CACACA_site2768],8.06 ± 0.41
4,ATTAAAAACGGGTGTACACATATATAAATATATATA [CACACA_site4539],8.21 ± 0.57
5,AGTAGCATATTCTATTGTACATATATATATATATAT [XGTACX_site2980],9.39 ± 0.61
6,TGTATAAAGATATATACACACATATTTATTTATATA [CACACA_site6493],7.52 ± 0.35
7,TACAAAATAACTAGCACACATATGTATAAACCTATA [CACACA_site3718],8.01 ± 0.29
8,ATATGTATATATGTATGTACGTACAAATTGTTGTAA [XGTACX_site8832],8.46 ± 0.042
9,TTAATACATTAAATATGTACTTATATATCTCAACTA [XGTACX_site3997],7.53 ± 0.48
10,ACCTGAAGAGTCAAACGTACAAATATTATAAAATGA [XGTACX_site3188],7.69 ± 0.45
11,GTTATATTTTTTTTTTGTACATAATATTGTATTGAC [XGTACX_site6338],8.18 ± 0.61
12,TATAAATACAGATACACACACACACCGATATATATA [CACACA_site5271],8.24 ± 0.62
13,AATATATAAATCTATTGTACATAAAGAGGATAATAA [XGTACX_site1022],7.92 ± 0.47
14,GATGATTATATATATACGCACACTTTTTTTTTTTTT [CACACA_site2652],8.37 ± 0.45
15,ATCACAAAATGGAATGTTCTATGATATATATGTATA [XGTACX_negctrl_site460],7.45 ± 0.41
16,TGTAAATATTTATTCACACATAATCAATTAGAAAAA [CACACA_site5944],7.54 ± 0.65
17,TACTTACTTACTTACTCACACACATATACAAAGAAA [CACACA_site3348],8.59 ± 0.59
18,TATATATATTTTTATGCACACACAAAGAAAATTTTC [CACACA_site8931],10.1 ± 0.24
19,AATACAGATAATACAACACACAAGTAATATAAACCT [CACACA_site5900],7.82 ± 0.61
20,TTGTTACTGTTTTGGTGTACAAAAAAAAAAAATATA [XGTACX_site5762],8.02 ± 0.54
21,AAAAAAAAAAAAAACACACACACAATAGTATATAAA [CACACA_site957],8.22 ± 0.54
22,AATATAAATAAAAACACACACAATGGTACATATATA [CACACA_site3671],7.84 ± 0.54
23,ATTGCAAGTTACTTGTGTACTTATAAGATTAAAAGA [XGTACX_site7696],8.28 ± 0.28

row,Sequence,gcPBM binding intensity (ln)
1,TAATAATACCCAAGCACACACACACCCATATATATA [CACACA_site4831],8.3 ± 0.63
2,TTTAAATCGTTAAAAACACACAAAAAAAATCAATTA [CACACA_site2519],7.49 ± 0.47
3,TACTGTGATAGCACCACACACGCAAAAGTGGGTATA [CACACA_site4749],9.55 ± 0.34
4,TCTATACCAGAAAAGGGTACATATTTTGGATTGAAC [XGTACX_site8402],7.72 ± 0.61
5,ATTATGCACCAACACACACACACACTCCTAAAAAAT [CACACA_site8822],11.4 ± 0.95
6,TTTCTTTTAATAATTAAATATTTATTTATGATTATA [TGCATGCA_negctrl_site30],7.55 ± 0.51
7,TACATACATATATTATGTACATATTTTATTTTTATT [XGTACX_site1642],7.72 ± 0.27
8,AAGCATACATCAAGCACACACACACCCACAGAGACA [CACACA_site4362],8.33 ± 0.21
9,AAAAAAAATTCGTGTGTGCGCATATATAATATATAA,8.46 ± 0.56
10,TATGTAGTTTTAAAGTGTACTTATATATATTAATTG [XGTACX_site378],7.76 ± 0.23
11,ATAAATATATATATCACACATATATAATTATATATA [CACACA_site4787],7.88 ± 0.51
12,ATAATAAAAATATATACATGCATTATTATATATATA [TGCATGCA_site799],8.54 ± 0.32
13,CAACAATTTCGTCATACACACATTCAGAATATAGAT [CACACA_site7166],7.61 ± 0.57
14,TTATTTCGAAGAAAATGTACATATATAAATATATAC [XGTACX_site3308],7.46 ± 0.39
15,ATAATATTTTTTAATTGTACGTTCCATTTTTTTAAA [XGTACX_site1227],7.9 ± 0.65
16,GATAATTACGGACACACACACACACGCACAACTAAA [CACACA_site7254],8.62 ± 0.17
17,ACTATCATTCATAGGTGTACCTAAATATATATATAT [XGTACX_site1696],9.12 ± 0.39
18,CGAATATATTCTAGACGTACTATATAATATATATAT [XGTACX_site4953],8.765 ± 0.049
19,TCTTTTTCTTCTTATGTGCACATCAATTATGCTTCT,9.49 ± 0.17
20,AGAACAATTCTGTGGTGTACCAAAAAAAATTTAATT [XGTACX_site8082],7.96 ± 0.64
21,ATATTTAAATTTTGCACACGCATATGAAATTAGGAC [CACACA_site1035],9.19 ± 0.085
22,AAAATAAATAAATATACACACCATATTTATATTTTT [CACACA_site7361],7.75 ± 0.62
23,TAAATGAATTTTACTATACACACGTATACATTTGTA [CACACA_site1210],7.42 ± 0.64

row,Sequence,gcPBM binding intensity (ln)
1,TAATTTGTTATTTATTGTACAAACATTATATGTTAA [XGTACX_site6637],7.54 ± 0.49
2,TACTACACACATTCATGTACTTGATAAATTAATGAT [XGTACX_site6444],7.74 ± 0.42
3,ATAACTAATATGAAATGTACCCATCAAAGTGTGCAT [XGTACX_site4463],7.74 ± 0.61
4,AAAATTAAAATACGTACACACCTTATCTTTTTGGCT [CACACA_site4311],8.21 ± 0.19
5,ATATTATAAATATAATGTACGTTTTAATTTCATGTT [XGTACX_site3557],7.66 ± 0.45
6,ATATATAATTATTGAAGTACTTGTTCATAAAATGGT [XGTACX_site5656],7.95 ± 0.45
7,AAAATAAAATGAAAACGTACATGATAAATTTTAATT [XGTACX_site4199],7.59 ± 0.67
8,TATATGAGCATAAAGACACACAAATAAAACCAAACA [CACACA_site3856],7.99 ± 0.52
9,TTTTGTTGAAAAAAAAAAAAAAAATTAAATTAAATT [GTGCAC_negctrl_site636],7.4 ± 0.55
10,CATAGACACGAACATACACACGGACATACATACGGA [CACACA_site8101],7.88 ± 0.67
11,GTAACAAATTAATAGTGTACATATTTTAAAAAAATA [XGTACX_site7150],7.79 ± 0.26
12,GTGTTAAATTTTTGAACATGCAAGTTTTATTATTGA [TGCATGCA_site478],7.58 ± 0.56
13,AATGCAAAGGTGAAAGAACACACAAAAAAAAAAAAA [CACACA_site9333],7.88 ± 0.88
14,GAAACATACATTTTTTGTCCGTAAGTATTATAATAA [XGTACX_site3273],7.78 ± 0.42
15,ATACATCAAGGACACACACACACACCCACACCCACA [CACACA_site8013],8.19 ± 0.34
16,CACATAAAAATTGTGTTGCACTTTTATTCTTATATC,8.82 ± 0.16
17,CTATGAATAGGAAAAAGTACTAAACCTTTATATATA [XGTACX_site5022],7.55 ± 0.42
18,ATTTTGCCTGACCCATGTACATATTATTTTTTGCAT [XGTACX_site2258],8.46 ± 0.86
19,AACTTACTTGGACATACACACATATATATATATATA [CACACA_site2978],9.48 ± 0.52
20,TTTATATATTTTAGGTGTACATAAATTTTTATATAT [XGTACX_site5597],7.97 ± 0.19
